The assay concerns the target T1, human Neuropilin-1 (NRP1) receptor (Homo sapiens, UniProt O14786).
T1 construct: purchased Elabscience
T1 sequence (O14786 22-641 limits assumed): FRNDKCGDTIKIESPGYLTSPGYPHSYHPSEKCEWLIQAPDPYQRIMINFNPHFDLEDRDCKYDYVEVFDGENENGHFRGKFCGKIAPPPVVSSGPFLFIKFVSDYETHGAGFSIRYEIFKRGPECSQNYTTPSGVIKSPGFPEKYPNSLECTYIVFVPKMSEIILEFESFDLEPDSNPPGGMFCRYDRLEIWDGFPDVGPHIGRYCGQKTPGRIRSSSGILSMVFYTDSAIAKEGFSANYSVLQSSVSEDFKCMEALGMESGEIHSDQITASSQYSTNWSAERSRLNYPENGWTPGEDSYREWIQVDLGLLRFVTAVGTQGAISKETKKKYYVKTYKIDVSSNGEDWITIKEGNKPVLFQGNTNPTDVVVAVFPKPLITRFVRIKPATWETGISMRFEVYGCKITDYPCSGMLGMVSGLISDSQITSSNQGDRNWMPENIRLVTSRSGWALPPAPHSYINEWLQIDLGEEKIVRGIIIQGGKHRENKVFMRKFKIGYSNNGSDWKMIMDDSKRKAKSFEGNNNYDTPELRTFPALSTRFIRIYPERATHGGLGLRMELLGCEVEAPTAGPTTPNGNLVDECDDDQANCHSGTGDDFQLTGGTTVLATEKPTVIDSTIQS

By EC50 is commonly meant the concentration that produces a half-maximal response. Read a low EC50 as higher potency in that assay.

On to `C=C1C(=O)OC2/C=C(/C)CC/C=C(\C(=O)O)CC/C=C(\C)CCC12` (stereo not shown) [Anisomelic acid], for which the EC50 is about 27.5 µM.

Values taken from patent publication US20240408055A1 (priority 2021, published 2024).
